About 6,400 (1.6%) of roughly 410,000 compounds were called active. This list was built around the results that the source calls inconclusive (neither active nor inactive); the mix of calls is not that of the screen. Calls come from the whole dose curve; as a rule, active = well fitted inhibition curve with a large enough effect; inconclusive = small, poorly fitted or top-dose-only effect; inactive = no such curve, though single readings can be large or run the other way. No potency is given beside an inconclusive call; the fits are too rough.
What follows are compounds tested against Glucagon-like peptide 1 receptor (Homo sapiens) (UniProt P43220) (assay: qHTS of GLP-1 Receptor Inverse Agonists (Inhibition Mode)). Conditions: HEK293 GLP-1R CRE-luciferase, luminescence, 24 h, GLP-1R form is constitutively active; activity change, negative = inhibition: at 38.3 µM (top of the series) unless noted.
How it was run: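 Luminescence readout: a drop in cAMP-driven luciferase signal flags inverse agonism at a constitutively active GLP-1R stably expressed in HEK293. Compound exposure lasted 24 hr at 37 deg C, 5% CO2.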
% is set by controls: 0 for no effect and ±100 for the full control effect; potency is the fitted concentration of half-maximal effect; tags give direction and shape of the fitted curve.
Note: nearly all actives have a fitted effect of over 55% in size.

Chain of UniProt P43220 (P43220 whole entry, looked up): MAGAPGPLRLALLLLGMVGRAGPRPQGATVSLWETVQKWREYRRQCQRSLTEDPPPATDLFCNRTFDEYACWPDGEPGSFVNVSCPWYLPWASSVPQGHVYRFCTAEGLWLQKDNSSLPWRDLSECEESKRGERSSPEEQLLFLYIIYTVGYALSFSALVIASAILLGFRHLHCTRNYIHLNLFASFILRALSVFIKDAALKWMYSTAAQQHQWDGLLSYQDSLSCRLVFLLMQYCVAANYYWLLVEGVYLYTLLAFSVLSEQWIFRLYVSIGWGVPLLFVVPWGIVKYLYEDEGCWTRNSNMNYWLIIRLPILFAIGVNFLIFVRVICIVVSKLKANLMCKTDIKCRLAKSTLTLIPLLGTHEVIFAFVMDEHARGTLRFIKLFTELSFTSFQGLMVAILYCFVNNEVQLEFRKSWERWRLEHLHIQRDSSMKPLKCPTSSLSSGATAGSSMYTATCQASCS

SMILES	Potency	activity change, negative = inhibition
CCN(Cc1ccccc1)C(=O)CN1C(=O)COc2ccc(S(=O)(=O)N(CC)CC)cc21	inconclusive [inhibitor, partial curve]	
O=C(COc1nsnc1N1CCOCC1)Nc1cccc(Cl)c1	inconclusive [inhibitor, single point]	
COc1ccc(C2Nc3ccccc3C(=O)N2Cc2ccco2)cc1COc1ccccc1F (configuration not stated)	inconclusive [inhibitor, partial curve, poor fit]	
COc1cccc(C(O)c2ncc(-c3ccccc3Cl)[nH]2)c1 (configuration not stated)	inconclusive [inhibitor, single point]	
Cc1ccc(N2C(=O)[C@@H]3[C@H](C2=O)[C@H]2C=CC=NN2[C@@H]3C(=O)Nc2ccc(Cl)cc2)cc1		inactive: 0.765%
COc1ccc([N+](=O)[O-])cc1NC(=O)/C=C/C(=O)O		inactive: 0%
O=S(=O)(NC1CCCCCCC1)c1cccs1	inconclusive [inhibitor, single point]	
CCOC(=O)c1nn(-c2ccc(C)cc2)cc1C(=O)c1ccccc1	inconclusive [inhibitor, single point]	
O=C(NCc1cccs1)c1cccc(Nc2nc3ccc(Br)cc3[nH]2)c1	inconclusive [inhibitor, single point]	
COc1ccc(C(=S)N2CCN(c3cccc(Cl)c3)CC2)cc1	inconclusive [inhibitor, single point]	
COc1cc(CN(C(=O)c2cccc(C)c2)c2ccccn2)cc(OC)c1OC		inactive: 0.819%
Cc1cc(C)cc(NC(=O)N2CCc3ccccc3C2)c1	inconclusive [inhibitor, single point]	
O=C(/C=C/c1ccccc1)NCCSc1ccc(Cl)cc1	inconclusive [inhibitor, single point]	
Cc1cc(-c2nnc(SCC(=O)Nc3ccccc3C(F)(F)F)o2)c(C)n1-c1ccccc1	active: 0.891 µM	
Cc1ccc(-n2cc(CN3CCNC(=O)CC3)c(-c3ccc(F)cc3)n2)cc1	inconclusive [inhibitor, single point]	
Cc1cc(C)c(OCCOCCN2CCCC2)c(C)c1	inconclusive [inhibitor, partial curve, poor fit]	
CCCCc1ccc(NC(=O)N2CCNC(=O)C2CC(=O)Nc2ccsc2C(=O)OC)cc1 (configuration not stated)	inconclusive [inhibitor, single point]	
COc1ccc(C2CC(c3ccccc3OC(C)=O)=NN2C(C)=O)cc1 (configuration not stated)	inconclusive [inhibitor, single point]	
Cc1ccc(OCC(=O)Nc2ccc(S(=O)(=O)N3CCOCC3)cc2)c(Br)c1	inconclusive [inhibitor, partial curve, poor fit]	
O=C(c1ccco1)N1c2ccccc2Sc2ccccc21	inconclusive [inhibitor, full curve, poor fit]	
S=C(Nc1ccc(Cl)cc1)Nc1cccc2cnccc12	inconclusive [inhibitor, partial curve, poor fit]	

SMILES	Potency	activity change, negative = inhibition
CC1=Nc2cc(C(=O)NCCCOC(C)C)ccc2Sc2ccc(C)cc21	inconclusive [inhibitor, full curve, poor fit]	
N#Cc1nc(-c2ccc(Cl)cc2)oc1NCc1cccc2c1OCO2		inactive: 6.17%
CC(C)(C)NC(=O)/C(=C\c1ccc(Br)cc1)NC(=O)c1cccs1	inconclusive [inhibitor, single point]	
Cc1ccccc1-c1nc(CS(=O)(=O)CC(=O)Nc2cc(Cl)cc(Cl)c2)c(C)o1	inconclusive [inhibitor, partial curve]	
O=C(CSc1ncc(-c2ccccc2)[nH]1)Nc1cccc(C(F)(F)F)c1	inconclusive [inhibitor, single point]	
CC(C)c1ccc2c(c1)-c1ccccc1S(=O)(=O)N2CC(=O)N1CCCCC1	inconclusive [inhibitor, single point]	
COc1cc(Cn2c(=O)sc3ccccc32)ccc1OCCC(C)C	active: 10 µM	
Cc1ccc(N2CCN(S(=O)(=O)c3ccc(F)cc3)CC2)c(C)c1	inconclusive [inhibitor, single point]	
CCCSc1nc(=S)n(Cc2ccccc2)c(C)c1C(C)=O	inconclusive [inhibitor, single point]	
O=Cc1[nH]c2ccccc2c1N(C(=O)CCl)c1ccccc1	inconclusive [inhibitor, single point]	
Cc1ccc(N2C(=O)CN(Cc3ccccc3)C2=S)cc1C		inconclusive: -81% [inhibitor]
COc1ccc(CNC(=O)CSc2n[nH]c(-c3ccc(OC)cc3)n2)cc1	inconclusive [inhibitor, full curve, poor fit]	
COc1ccc(CN(C)CC(=O)Nc2ccc(Cl)cc2F)c(OC)c1	inconclusive [inhibitor, single point]	
Cc1cccc(C)c1C(O)c1ncc(-c2ccccc2F)[nH]1 (configuration not stated)		inactive: 2.03%
Cc1ccc(NC(=O)Nc2cccs2)c(Cl)c1	inconclusive [inhibitor, single point]	
NC(=O)[C@@H]1CC2(CC(c3cccc(NC(=O)CC(c4ccccc4)c4ccccc4)c3)=NO2)CN1C(=O)COc1ccc(Cl)cc1 (some centres not stated)	active: 11.2 µM	
COc1ccccc1N/C(=N/S(=O)(=O)c1ccc(C)cc1)c1ccccc1	inconclusive [inhibitor, full curve]	
CN(Cc1ccccc1)C(=O)COc1ccc(Br)cc1Cl	inconclusive [inhibitor, single point]	
COC(=O)c1cc(=O)n(-c2ccc(F)cc2)c(=Nc2ccc(F)cc2)s1	active: 4.47 µM	
CC(C)c1ccc(CNC(=O)CCc2ccccc2)cc1	inconclusive [inhibitor, single point]	
Cc1ccc(S(=O)(=O)N2c3ccccc3-c3c(ssc3=S)C2(C)C)cc1	inconclusive [inhibitor, single point]	

Source: PubChem BioAssay AID624417 (National Center for Advancing Translational Sciences (NCATS), 2012)
